Measurements: PubChem BioAssay AID624296 (National Center for Advancing Translational Sciences (NCATS), 2012)
Among all 350,000 compounds or so, about 9,900 (2.8%) were called active. The shares of active, inactive and inconclusive entries below differ from those in the screen. The call rests on the fitted dose curve; in most records, active means well fitted activation curve with a large enough effect; inconclusive means small, poorly fitted or top-dose-only effect; inactive means no such curve, though single readings can be large or run the other way. Potencies of inconclusive entries are left out as doubtful fits.

Assay: A quantitative high throughput screen for small molecules that induce DNA re-replication in MCF 10a normal breast cells. Further: nearly all actives have a fitted effect of over 50% in size.
Conditions: MCF 10A DNA re-replication, Hoechst nuclear intensity, 48 h; series mostly up to 46.1 µM
Potency means the concentration at half of the fitted maximal effect; tags describe the fitted curve by direction and shape.

SMILES	Potency
CC(C)(C)C(=O)NCCN1C(=O)S/C(=C\c2ccc([N+](=O)[O-])cc2)C1=O	inconclusive [activator, single point]
Cc1cccc(CCN(C(=O)c2snc(C(N)=O)c2N)C(C(=O)NCC2CCCO2)c2ccc(F)cc2)c1 (centres undefined)	inconclusive [activator, single point]
CC(C)CCN(CC(=O)NCc1ccc(F)cc1)S(=O)(=O)c1ccccc1F	inconclusive [activator, partial curve, poor fit]
CC1C/C(=N\Nc2ccc(S(N)(=O)=O)cc2[N+](=O)[O-])CC(C)(C)C1 (centres undefined)	active: 20.6 µM
CCOc1cc(C)c(S(=O)(=O)NC2CCCCC2)cc1C	inactive
CC1=CC(C)(C)NC(=S)N1c1cccc(C)c1	inconclusive [activator, partial curve]
O=C(Nc1ccc(F)c(F)c1)c1ccccc1	inactive
O=Cc1c(Cl)nc2ccccn2c1=O	active: 25.9 µM
Cc1sc(NC(=O)c2ccc(Cl)s2)c(C(N)=O)c1C	inconclusive [activator, single point]
Cc1nn(-c2ccccc2)cc1/C=N/NC(N)=S	inconclusive [activator, single point]
CCOc1cc(Cl)c(S(=O)(=O)NCCCN2CCOCC2)cc1Cl	inconclusive [activator, partial curve, poor fit]
Nc1ccc(C#Cc2ccc3oc4ccccc4c(=O)c3c2)cc1	inconclusive [activator, single point]
Cc1occc1C(=O)NCCCCNC(=O)c1ccoc1C	inconclusive [activator, partial curve, poor fit]
O=C(COc1ccc2ccccc2c1)NNC(=O)Cc1cccc2ccccc12	inconclusive [activator, single point]
O=C(CCSCc1ccc(Cl)cc1)NCCC1=CCCCC1	inconclusive [activator, partial curve, poor fit]
O=C(Cc1ccccc1Cl)Nc1nc2ccccc2[nH]1	inactive
CSc1ccc(CN2CCC(Oc3cccc(C(=O)N4CCCC4)c3)CC2)cc1	inconclusive [activator, single point]
CCOC(=O)N1CCN(Cc2nc3cc(NC(=O)CC)ccc3n2CC)CC1	inconclusive [activator, single point]
COc1cc(C(C)=O)ccc1OCC(O)CN1CCN(c2c(C)cccc2C)CC1 (centres undefined)	inconclusive [activator, single point]
c1ccc2c(-c3nnc(SCc4cn5ccccc5n4)o3)c[nH]c2c1	inconclusive [activator, partial curve]
Cn1c2c(c(=O)n(C)c1=O)[C@@]1(C(=O)Nc3ccccc31)C(C#N)=C(N)O2	inactive
O=C(Nc1ccc(N2CCN(C(=O)c3ccco3)CC2)cc1)c1cc(Br)ccc1Cl	inconclusive [activator, single point]

SMILES	Potency
CCC(C)NC(=O)Cn1cnc2sc(C)c(S(=O)(=O)N3CCCCC3)c2c1=O (centres undefined)	inactive
N#C/C(=C/c1ccc(-c2cc([N+](=O)[O-])ccc2Cl)o1)C(N)=O	inconclusive [activator, single point]
Cc1cccc(N(CC(=O)NC(C)C)C(=O)CCC(=O)Nc2nccs2)c1	inactive
CC(NNC(=S)N1CCN(c2ccccn2)CC1)c1nccc2ccccc12 (centres undefined)	inconclusive [activator, partial curve, poor fit]
CC(C)c1cc(C(=O)NNC(=S)NCc2ccco2)c(O)c(C(C)C)c1	inconclusive [activator, single point]
CN(c1ccccc1)S(=O)(=O)c1cc(C(=O)Nc2ccccc2N2CCOCC2)ccc1Cl	inconclusive [activator, partial curve, poor fit]
Cc1c(C(=O)OCC(=O)NCCN2C(=O)CSC2=O)oc2c1ccc1ccccc12	inconclusive [activator, partial curve, poor fit]
Cn1cnc([N+](=O)[O-])c1Sc1nc2ccccc2[nH]1	inconclusive [activator, single point]
CCCCOc1cc(C(=O)OCCN(CC)CC)ccc1N	inconclusive [activator, single point]
O=C(/C(=C/O)N=Nc1ccccc1)c1ccco1	active: 14.6 µM
O=C(O)c1ccccc1/C=N/Nc1ccc(S(=O)(=O)N2CCCC2)cc1[N+](=O)[O-]	inactive
Cc1ccccc1C(=O)Nc1ccc(C(=O)N/N=C/c2ccccn2)cc1	inactive
CCCCCCCCn1c2c(c(=N)c3ccccc31)CCC2	inconclusive [activator, single point]
CC(/C=N/NC(=O)c1cc(C2CC2)[nH]n1)=C\c1ccccc1	inconclusive [activator, partial curve]
COc1ccccc1OCCN(C#N)c1nc(N(C)C)nc(N(C)C)n1	inactive
COC(=O)c1c(NC(=O)COc2ccc(Cl)cc2Cl)sc2c1CC(C)(C)NC2(C)C	active: 3.26 µM
COc1c(Cl)cc(Cl)cc1CNCCNCC(C)O (centres undefined)	inconclusive [activator, partial curve, poor fit]
OC(CNCCc1ccc(Cl)cc1)COc1cc(Cl)ccc1Cl (centres undefined)	inconclusive [activator, single point]
CC(C)CC1NC(=O)N(CC(=O)Nc2ccc(-c3ccccc3)cc2)C1=O (centres undefined)	inconclusive [activator, full curve, poor fit]
CC(C)CNC(=O)/C=C/C=C/c1ccc2c(c1)OCO2	inactive
CC(C(=O)Nc1ccc([N+](=O)[O-])cc1)N1CCN(C/C=C/c2ccccc2)CC1 (centres undefined)	inconclusive [activator, partial curve, poor fit]
COc1cc(NC(=O)c2cc(Cl)ccc2Cl)ccc1-c1cc2ccccc2oc1=O	inconclusive [activator, single point]
